Test results reported in PubChem BioAssay AID743279 (National Center for Advancing Translational Sciences (NCATS), 2014).
Screen size: about 360,000 compounds; about 17,000 (4.7%) were called active. The shares of active, inactive and inconclusive entries below differ from those in the screen. Cut-off read from the data, not from the text of the source: active = activity change below about -50%; inconclusive = mostly about -30% to -49%; inactive = weaker than that. Some structures have more than one record in an assay (separate samples or runs), and their calls can disagree.
% is set by controls: 0 for no effect and ±100 for the full control effect.

Assay: qHTS for Inhibitors of Inflammasome Signaling: IL-1-beta AlphaLISA Primary Screen
Conditions: THP-1 LPS/ATP IL-1B secretion, 16 h; at 57.5 µM, stronger effect = lower value
Summary of the method: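 Secreted IL-1B measured by AlphaLISA bead assay after 16 h compound exposure of THP-1 cells; compounds (final up to 57.5 uM) added 1 h before LPS (250 ng/mL) and ATP (1.25 mM) stimulation; lower signal means less secretion.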
In the case of `CCOc1c(S(=O)(=O)NC2CC(C)(C)NC(C)(C)C2)ccc(Cl)c1Cl`, the activity change is reported as inconclusive: -45.4%.
In the case of `CS(=O)(=O)CCC(C(=O)OCc1ccc(Cl)cc1)N1C(=O)c2ccccc2C1=O` (stereo not given), the activity change is reported as inactive: 0%.
With `COc1ccccc1CCNCc1ccc(OC)c(OCc2ccccc2)c1` the activity change was active: -99.1%.
With `Cc1ccc(N2C(=O)CC2(C#N)c2ccc(OCc3ccccc3)cc2)cc1` (stereo not given) the activity change was inconclusive: -47.1%.
For `COc1ccc(C)cc1S(=O)(=O)N(C)CC(=O)N1CCCC1`, the activity change was inactive: -15.3%.
In the case of `N#Cc1c(NCc2ccccc2)ccnc1NCc1cccnc1`, the activity change is reported as inconclusive: -44.6%.
With `CCCCN1C(=O)C(CC(=O)NCc2cccc3ccccc23)CC(C(=O)N(C(C)C)C(C)C)=C1C` (stereo not given) the activity change was inconclusive: -38.6%.
In the case of `O=C(CN1CCN(C(=O)c2cc(C3CC3)nn2-c2ccccc2)CC1)Nc1ccc(F)cc1`, the activity change is reported as inconclusive: -42.7%.
For `COc1ccc(-c2ccc(-c3nc4ccc(C)cn4c3NC3CCCCC3)cc2OC)cc1`, the activity change was active: -55.1%.
For `CCCn1nc(C(=O)NC2CCCc3ccccc32)c2ccccc2c1=O` (stereo not given), the activity change was inconclusive: -33.3%.
For `Nc1ccc2ccccc2c1N=Nc1ccccc1`, the activity change was inconclusive: -40.4%.
With `O=c1c2c(-c3ccco3)csc2nc(SCc2cn3cccnc3n2)n1-c1ccccc1` the activity change was inconclusive: -35.5%.
For `O=C1CC(Nc2ccccc2)C(=O)N1Cc1ccccc1` (stereo not given), the activity change was inconclusive: -30.1%.
In the case of `CCNC(=O)C1(C)CCCN(Cc2ccc3ccccc3c2Br)C1` (stereo not given), the activity change is reported as inconclusive: -38.7%.
In the case of `O=C(Nc1nc(-c2ccc(Cl)cc2)cs1)C1CCCO1` (stereo not given), the activity change is reported as active: -69.5%.
With `COc1cccc(-c2cc3nc(NCCN4CCCC4)n(C)c(=O)c3s2)c1` the activity change was inconclusive: -39.3%.
In the case of `NS(=O)(=O)c1cccc(NC(=O)Nc2ccc(Cl)cc2)c1`, the activity change is reported as inconclusive: -40.5%.
For `O=C1c2ccccc2C(=O)N1CCCCSc1nc2ccccc2c(=O)n1CCCN1CCOCC1`, the activity change was inconclusive: -46%.
With `O=C(c1cccc(N2C(=O)C3C4C=CC(C4)C3C2=O)c1)N1CCN(c2ccccc2)CC1` (stereo not given) the activity change was inconclusive: -39.4%.
For `Cn1nccc1C(=O)Nc1sc2c(c1C#N)CCCC2`, the activity change was inconclusive: -32.9%.
For `CN(C)CCN(C(=O)C1=COCCO1)c1nc2ccc(Cl)cc2s1`, the activity change was inconclusive: -41.4%.
With `COc1ccc(-n2c(C)cc(/C=C(\C#N)C(=O)NCc3ccco3)c2C)cc1` the activity change was inactive: 16.3%.
In the case of `Nc1ccccc1-c1ccc(Cl)cc1`, the activity change is reported as inactive: -5.64%.
In the case of `O=C(O)c1cc([N+](=O)[O-])ccc1-c1ccc([N+](=O)[O-])cc1C(=O)O`, the activity change is reported as inconclusive: -30.5%.
With `CC(=O)c1cccc(NC(=S)N2CCC(Cc3ccccc3)CC2)c1` the activity change was inconclusive: -40.9%.
With `CC(C)(C)c1ccc(OCC(=O)NNC(=S)NC(=O)c2ccco2)c(Br)c1` the activity change was inactive: 24%.
For `O=C1C=CC2C3C(=O)N(c4ccccc4)C(=O)C3C1N2Cc1ccccc1` (stereo not given), the activity change was active: -96.9%.
With `CCOC(=O)CCCCCC(=O)Nc1ccc2c(c1)CC(=O)N([C@H](C)CO)C[C@H](C)[C@H](CN(C)S(=O)(=O)c1ccc(OC)cc1)O2` the activity change was inactive: 17.9%.
In the case of `Cc1ccccc1CNC(=O)C1CCCN(c2nnc(C)c3c(C)n(-c4ccccc4)nc23)C1` (stereo not given), the activity change is reported as inconclusive: -39%.
With `O=C1c2ccccc2C(=O)c2c(Nc3ccc(CCO)cc3)ccc(O)c21` the activity change was inconclusive: -33.6%.
In the case of `CCCCCCC[C@@H](C/C=C/CCC(=O)N(C)C/C(=C/Cl)C/C(=C\C(=O)N1C[C@H](O)CC1=O)OC)OC`, the activity change is reported as active: -70.6%.
In the case of `c1cncc(CNc2cccc(-c3nc4ccccc4[nH]3)c2)c1`, the activity change is reported as inactive: -15%.
For `COc1ccccc1Nc1ccc(N)cc1`, the activity change was inconclusive: -49.7%.
With `CN(C)C=Nc1ccc([N+](=O)[O-])c2ccccc12` the activity change was inconclusive: -42.5%.
In the case of `CCOC(=O)c1sc(NC(=O)c2ccc(Cl)s2)cc1C`, the activity change is reported as inconclusive: -39.8%.
For `N#CC(c1ccc(F)cc1)c1ccc(C(=O)c2ccc(F)cc2)cc1` (stereo not given), the activity change was inconclusive: -30.1%.
With `O=S(=O)(Nc1ccc(Cc2ccncc2)cc1)c1cccs1` the activity change was inconclusive: -34.5%.
For `CC(C)C(=O)Nc1cccc(NC(=O)c2ccc(Cl)cc2Cl)c1`, the activity change was active: -59.4%.
With `FC(F)(F)c1cccc(-c2cc(C3CCNCC3)[nH]n2)c1` the activity change was inconclusive: -47.3%.
For `CC1CC(C)CN(CCCNC(=O)c2ccc3c(c2)NC(=O)C(N2CCCCC2)S3)C1` (stereo not given), the activity change was inconclusive: -48%.
For `O=C(Nc1ccc(C(=O)N2CCN(c3ccccn3)CC2)cc1)c1ccc(Br)o1`, the activity change was inconclusive: -30.9%.
In the case of `Oc1ccc(N2CCN(c3ncnc4sc(-c5ccccc5)cc34)CC2)cc1`, the activity change is reported as active: -69.8%.
In the case of `Cc1cc(C(=O)CN2C(=O)NC3(CCCc4ccccc43)C2=O)c(C)n1Cc1cccs1` (stereo not given), the activity change is reported as inconclusive: -38.7%.
With `CC(c1nc2ccccc2[nH]1)n1c(=O)c(-c2ccco2)nc2ccccc21` (stereo not given) the activity change was inconclusive: -31.6%.
With `CCOC(=O)C1CCN(S(=O)(=O)CCNC(=O)c2ccccc2)CC1` the activity change was inconclusive: -40.7%.
With `COc1cccc(CN2C(=O)C(C)Oc3ccccc32)c1` (stereo not given) the activity change was inactive: 12.1%.
For `OC1CCCN(CC(O)COC(c2ccc(F)cc2)c2ccc(F)cc2)C1` (stereo not given), the activity change was inconclusive: -38.9%.
In the case of `N=C(N)SCc1nc2ccccc2c(=O)n1-c1ccccc1`, the activity change is reported as inconclusive: -42.3%.
In the case of `CCN1CCN(C(c2nnnn2Cc2ccc3c(c2)OCO3)C(C)C)CC1` (stereo not given), the activity change is reported as inconclusive: -32.1%.
For `COc1cc(C(=O)NCC(c2cccs2)N2CCOCC2)ccc1OCc1ccc(Cl)cc1` (stereo not given), the activity change was inconclusive: -37.5%.
For `COc1ccc(-n2cc(CNCCc3nc(C)cc(C)n3)c(-c3ccccc3Cl)n2)cc1`, the activity change was inconclusive: -34.6%.
For `CN1CCN(c2ccc(CNC(=O)C3Cc4c(-c5ccccc5Oc5ccccc5)ccnc4O3)cc2)CC1` (stereo not given), the activity change was inconclusive: -39.4%.
For `Cc1ccc2cc(C#N)c(NCCNC(=O)C3CC3)nc2c1C`, the activity change was inconclusive: -33.5%.
For `CC(N)(C(=O)O)c1cccc(OCc2cccc(Cl)c2)c1` (stereo not given), the activity change was inconclusive: -35.1%.
With `C=CCOC(=O)C1=C(C)NC(C)=C(C(=O)OCC=C)C1c1cccs1` the activity change was inconclusive: -46.6%.
With `N/C(=N\OC(=O)Nc1ccccc1)c1ncc([N+](=O)[O-])s1` the activity change was active: -64.3%.
In the case of `Cc1ccc2c(c1)[nH]c1c(=O)n(Cc3ccco3)cnc12`, the activity change is reported as inconclusive: -31.7%.
For `O=C1C(=Cc2ccco2)CCC1=Cc1ccco1`, the activity change was active: -51%.
With `CCN1CCN(c2ccc(NC(=O)CCc3c(C)nc4c(-c5ccccc5)c(C)nn4c3C)cc2)CC1` the activity change was active: -62%.
With `COc1ccc(N(CC(=O)NCCC2=CCCCC2)S(=O)(=O)c2ccccc2)cc1` the activity change was inconclusive: -39.2%.
In the case of `NC(=S)N/N=C/c1ccccc1OCCSc1ccc(Cl)cc1`, the activity change is reported as inconclusive: -36.8%.
In the case of `COc1ccc(SC[C@H](Cc2ccccc2)N2CC[C@@H](C(C)(C)C)CCC2=O)cc1`, the activity change is reported as active: -50.8%.
For `CC(=O)c1cccc(NS(=O)(=O)c2ccc(N/C=C/C(=O)c3ccc(F)cc3)cc2)c1`, the activity change was active: -75.7%.
With `CCOc1ccc2nc(NC(=O)CN3CCC(n4nnc5cc(F)ccc54)CC3)sc2c1` the activity change was inconclusive: -41.4%.
For `Cc1cc(F)ccc1-c1cc(C(=O)NC2CCCCC2)[nH]n1`, the activity change was inconclusive: -42.5%.
For `Cc1ccc(Nc2nc(-c3ccccc3)c(CC(=O)O)s2)cc1`, the activity change was inconclusive: -47.9%.
In the case of `CN1/C(=C\C(=S)NC(=O)c2ccccc2Cl)C(C)(C)c2ccccc21`, the activity change is reported as active: -53.5%.
With `CNS(=O)(=O)c1cc(-c2nnc(Nc3ccc(NC(C)=O)cc3)c3ccccc23)ccc1C` the activity change was inconclusive: -31.3%.
In the case of `COC(=O)[C@]12CCCCC=C1N(Cc1ccc(Cl)cc1Cl)C(=O)[C@H](CC(=O)NCCCCc1ccccc1)C2`, the activity change is reported as active: -50.7%.
With `CC(=O)Nc1ccc(Nc2nc(C(F)(F)F)nc3c2nnn3Cc2ccccc2Cl)cc1` the activity change was inactive: -1.58%.
With `CCCc1nnc(NC(=O)CCS(=O)(=O)c2ccccc2)s1` the activity change was active: -58.3%.
With `CCCNC(=O)c1ccc2nc(-c3ccccc3)c(-c3ccccc3)nc2c1` the activity change was inconclusive: -44.7%.
In the case of `COc1ccc(/C=C/C(=O)Nc2ccc(OC)nc2)cc1`, the activity change is reported as inconclusive: -31.3%.
In the case of `CCCCCC(=O)N1C[C@@H](O)[C@H](n2cc(COC(=O)c3ccccc3)nn2)C[C@@H]1c1ccccc1`, the activity change is reported as inactive: 2.25%.
For `COc1cc(Br)c(CN2CCCN(C)CC2)cc1OC`, the activity change was inactive: -8.71%.
In the case of `O=C1CCCN1CCCNc1ncnc2c1[nH]c1ccc(Cl)cc12`, the activity change is reported as inconclusive: -38.2%.
In the case of `O=C(c1ccco1)N1CCN(C(=S)Nc2ccc(Br)cc2Cl)CC1`, the activity change is reported as inconclusive: -49.7%.
For `CCn1nc(C(=O)Nc2ccccc2N2CCCC2)c2ccccc2c1=O`, the activity change was active: -62.3%.
For `CCn1c(COc2ccc(C)cc2)nnc1SCc1ccc(C#N)cc1`, the activity change was inconclusive: -31.6%.
With `Cc1cccc(C(=O)N2CCC(=O)N(C(COCc3cccc(C(F)(F)F)c3)Cc3ccccc3)CC2)c1` (stereo not given) the activity change was inconclusive: -43.5%.
In the case of `Cc1ccc(OC/C(=N\O)C(C)(C)C)c([N+](=O)[O-])c1`, the activity change is reported as active: -82.3%.
For `C=C1CCC[C@]2(C)C[C@H]3OC(=O)C(CNCC(OC)OC)[C@H]3CC12` (stereo not given in full), the activity change was active: -78.4%.
For `Cc1ccc(NC(=O)c2nc[nH]c2C(=O)NCCCCCCNC(=O)c2[nH]cnc2C(=O)Nc2ccc(C)cc2)cc1`, the activity change was inconclusive: -34.9%.
For `N#C/C(=N\Nc1ccc(Cl)c(Cl)c1)C(=O)C1CC1`, the activity change was inconclusive: -36.5%.
With `CC[C@@H](C)C(NC(=O)OC(C)(C)C)c1cn([C@@H](CCC(=O)OC(C)(C)C)C(=O)N2CCN(C(=O)OC(C)(C)C)CC2)nn1` (stereo not given in full) the activity change was inconclusive: -36.2%.
